Reference: the supplement of paper PMC8728848
The list shows a part of the results.

Experiments:
Test in all cases: glycan array binding signal (z-score within array); higher = stronger binding
Conditions in all cases: glycan notation: IUPAC condensed, linker removed
[1] = target: Neu5Ac(a2-3)Gal6S(b1-4)[Fuc(a1-3)]GlcNAc
Summary of the method: (§1)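 Negative Z-scores can be read as non-binding. The Z-score is calculated within each array and then averaged across arrays of one protein sequence at different concentrations or buffers and across linkers. Arrays, 3228 in all, were curated from the Consortium for Functional Glycomics database and kept only where the protein sequence was available.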

Neu5Ac(a2-3)GalNAc = target: Neu5Ac(a2-3)GalNAc
Summary of the method: as §1

[2] = target: Neu5Ac(a2-3)GalNAc(b1-4)GlcNAc
Summary of the method: as §1

[3] = target: Neu5Ac(a2-3)[GalNAc(b1-4)]Gal(b1-4)Glc
Summary of the method: as §1

[4] = target: Neu5Ac(a2-3)[GalNAc(b1-4)]Gal(b1-4)GlcNAc
Summary of the method: as §1

[5] = target: Neu5Ac(a2-3)[GalNAc(b1-4)]Gal(b1-4)GlcNAc(b1-3)GalNAc
Summary of the method: as §1

[6] = target: Neu5Ac(a2-3)[Neu5Ac(a2-6)]GalNAc
Summary of the method: as §1

Neu5Ac(a2-6)Gal = target: Neu5Ac(a2-6)Gal
Summary of the method: as §1

[7] = target: Neu5Ac(a2-6)Gal(b1-3)GlcNAc(b1-3)[Gal(b1-4)GlcNAc(b1-6)]Gal(b1-4)Glc
Summary of the method: as §1

Neu5Ac(a2-6)Gal(b1-4)Glc = target: Neu5Ac(a2-6)Gal(b1-4)Glc
Summary of the method: as §1

[8] = target: Neu5Ac(a2-6)Gal(b1-4)GlcNAc
Summary of the method: as §1

[9] = target: Neu5Ac(a2-6)Gal(b1-4)GlcNAc(b1-2)Man
Summary of the method: as §1

[10] = target: Neu5Ac(a2-6)Gal(b1-4)GlcNAc(b1-2)Man(a1-3)Man(b1-4)GlcNAc(b1-4)GlcNAc
Summary of the method: as §1

[11] = target: Neu5Ac(a2-6)Gal(b1-4)GlcNAc(b1-2)Man(a1-3)[Gal(b1-4)GlcNAc(b1-2)Man(a1-6)]Man(b1-4)GlcNAc(b1-4)GlcNAc
Summary of the method: as §1

[12] = target: Neu5Ac(a2-6)Gal(b1-4)GlcNAc(b1-2)Man(a1-3)[GlcNAc(b1-2)Man(a1-6)]Man(b1-4)GlcNAc(b1-4)GlcNAc
Summary of the method: as §1

[13] = target: Neu5Ac(a2-6)Gal(b1-4)GlcNAc(b1-2)Man(a1-3)[GlcNAc(b1-4)][Neu5Ac(a2-6)Gal(b1-4)GlcNAc(b1-2)Man(a1-6)]Man(b1-4)GlcNAc(b1-4)GlcNAc
Summary of the method: as §1

[14] = target: Neu5Ac(a2-6)Gal(b1-4)GlcNAc(b1-2)Man(a1-3)[Man(a1-6)]Man(b1-4)GlcNAc(b1-4)GlcNAc
Summary of the method: as §1

[15] = target: Neu5Ac(a2-6)Gal(b1-4)GlcNAc(b1-2)Man(a1-3)[Neu5Ac(a2-3)Gal(b1-4)GlcNAc(b1-2)Man(a1-6)]Man(b1-4)GlcNAc(b1-4)GlcNAc
Summary of the method: as §1

[16] = target: Neu5Ac(a2-6)Gal(b1-4)GlcNAc(b1-2)Man(a1-3)[Neu5Ac(a2-6)Gal(b1-4)GlcNAc(b1-2)Man(a1-6)]Man(b1-4)GlcNAc(b1-4)GlcNAc
Summary of the method: as §1

[17] = target: Neu5Ac(a2-6)Gal(b1-4)GlcNAc(b1-2)Man(a1-3)[Neu5Ac(a2-6)Gal(b1-4)GlcNAc(b1-2)Man(a1-6)]Man(b1-4)GlcNAc(b1-4)[Fuc(a1-6)]GlcNAc
Summary of the method: as §1

[18] = target: Neu5Ac(a2-6)Gal(b1-4)GlcNAc(b1-2)Man(a1-6)Man(b1-4)GlcNAc(b1-4)GlcNAc
Summary of the method: as §1

[19] = target: Neu5Ac(a2-6)Gal(b1-4)GlcNAc(b1-2)Man(a1-6)[Gal(b1-4)GlcNAc(b1-2)Man(a1-3)]Man(b1-4)GlcNAc(b1-4)GlcNAc
Summary of the method: as §1

[20] = target: Neu5Ac(a2-6)Gal(b1-4)GlcNAc(b1-2)Man(a1-6)[GlcNAc(b1-2)Man(a1-3)]Man(b1-4)GlcNAc(b1-4)GlcNAc
Summary of the method: as §1

[21] = target: Neu5Ac(a2-6)Gal(b1-4)GlcNAc(b1-2)Man(a1-6)[Man(a1-3)]Man(b1-4)GlcNAc(b1-4)GlcNAc
Summary of the method: as §1

[22] = target: Neu5Ac(a2-6)Gal(b1-4)GlcNAc(b1-2)[Neu5Ac(a2-6)Gal(b1-4)GlcNAc(b1-4)]Man(a1-3)[GlcNAc(b1-4)][Neu5Ac(a2-6)Gal(b1-4)GlcNAc(b1-2)[Neu5Ac(a2-6)Gal(b1-4)GlcNAc(b1-6)]Man(a1-6)]Man(b1-4)GlcNAc(b1-4)GlcNAc
Summary of the method: as §1

[23] = target: Neu5Ac(a2-6)Gal(b1-4)GlcNAc(b1-2)[Neu5Ac(a2-6)Gal(b1-4)GlcNAc(b1-4)]Man(a1-3)[GlcNAc(b1-4)][Neu5Ac(a2-6)Gal(b1-4)GlcNAc(b1-4)Man(a1-6)]Man(b1-4)GlcNAc(b1-4)GlcNAc
Summary of the method: as §1

[24] = target: Neu5Ac(a2-6)Gal(b1-4)GlcNAc(b1-2)[Neu5Ac(a2-6)Gal(b1-4)GlcNAc(b1-6)]Man(a1-6)[Neu5Ac(a2-6)Gal(b1-4)GlcNAc(b1-2)Man(a1-3)][GlcNAc(b1-4)]Man(b1-4)GlcNAc(b1-4)GlcNAc
Summary of the method: as §1

[25] = target: Neu5Ac(a2-6)Gal(b1-4)GlcNAc(b1-3)Gal(b1-3)GlcNAc
Summary of the method: as §1

[26] = target: Neu5Ac(a2-6)Gal(b1-4)GlcNAc(b1-3)Gal(b1-4)GlcNAc
Summary of the method: as §1

[27] = target: Neu5Ac(a2-6)Gal(b1-4)GlcNAc(b1-3)Gal(b1-4)GlcNAc(b1-2)Man(a1-3)[Neu5Ac(a2-6)Gal(b1-4)GlcNAc(b1-3)Gal(b1-4)GlcNAc(b1-2)Man(a1-6)]GalNAc
Summary of the method: as §1

[28] = target: Neu5Ac(a2-6)Gal(b1-4)GlcNAc(b1-3)Gal(b1-4)GlcNAc(b1-3)Gal(b1-4)GlcNAc
Summary of the method: as §1

[29] = target: Neu5Ac(a2-6)Gal(b1-4)GlcNAc(b1-3)Gal(b1-4)GlcNAc(b1-3)Gal(b1-4)GlcNAc(b1-2)Man(a1-3)[Neu5Ac(a2-6)Gal(b1-4)GlcNAc(b1-3)Gal(b1-4)GlcNAc(b1-3)Gal(b1-4)GlcNAc(b1-2)Man(a1-6)]GalNAc
Summary of the method: as §1

[30] = target: Neu5Ac(a2-6)Gal(b1-4)GlcNAc(b1-3)Gal(b1-4)GlcNAc(b1-3)GalNAc
Summary of the method: as §1

[31] = target: Neu5Ac(a2-6)Gal(b1-4)GlcNAc(b1-3)Gal(b1-4)GlcNAc(b1-3)[Neu5Ac(a2-6)Gal(b1-4)GlcNAc(b1-3)Gal(b1-4)GlcNAc(b1-6)]GalNAc
Summary of the method: as §1

[32] = target: Neu5Ac(a2-6)Gal(b1-4)GlcNAc(b1-3)Gal(b1-4)GlcNAc(b1-6)[Gal(b1-3)]GalNAc
Summary of the method: as §1

[33] = target: Neu5Ac(a2-6)Gal(b1-4)GlcNAc(b1-3)Gal(b1-4)[Fuc(a1-3)]GlcNAc(b1-3)Gal(b1-4)[Fuc(a1-3)]GlcNAc
Summary of the method: as §1

[34] = target: Neu5Ac(a2-6)Gal(b1-4)GlcNAc(b1-3)GalNAc
Summary of the method: as §1

[35] = target: Neu5Ac(a2-6)Gal(b1-4)GlcNAc(b1-3)[Neu5Ac(a2-6)Gal(b1-4)GlcNAc(b1-6)]GalNAc
Summary of the method: as §1

[36] = target: Neu5Ac(a2-6)Gal(b1-4)GlcNAc(b1-6)GalNAc
Summary of the method: as §1

[37] = target: Neu5Ac(a2-6)Gal(b1-4)GlcNAc(b1-6)[Gal(b1-3)GlcNAc(b1-3)]Gal(b1-4)Glc
Summary of the method: as §1

[38] = target: Neu5Ac(a2-6)Gal(b1-4)GlcNAc(b1-6)[Gal(b1-3)]GalNAc
Summary of the method: as §1

[39] = target: Neu5Ac(a2-6)Gal(b1-4)GlcNAc6S
Summary of the method: as §1

Neu5Ac(a2-6)GalNAc = target: Neu5Ac(a2-6)GalNAc
Summary of the method: as §1

[40] = target: Neu5Ac(a2-6)GalNAc(b1-4)GlcNAc
Summary of the method: as §1

[41] = target: Neu5Ac(a2-6)GalNAc(b1-4)GlcNAc6S
Summary of the method: as §1

B1: CFEM-PPm (Pichia pastoris), F2QPV1 (protein)
chain: AVATPPACLLACAAEVVKESSDCDALNNIQCICENEGSAIHACLESTCPDGLSSTALQSFEDVCE
glycan array binding signal (z-score) [1]: -0.32
glycan array binding signal (z-score) (Neu5Ac(a2-3)GalNAc): -0.245
glycan array binding signal (z-score) [2]: -0.26
glycan array binding signal (z-score) [3]: -0.369
glycan array binding signal (z-score) [4]: -0.318
glycan array binding signal (z-score) [5]: -0.344
glycan array binding signal (z-score) [6]: -0.168
glycan array binding signal (z-score) (Neu5Ac(a2-6)Gal): -0.251
glycan array binding signal (z-score) [7]: -0.189
glycan array binding signal (z-score) (Neu5Ac(a2-6)Gal(b1-4)Glc): -0.214
glycan array binding signal (z-score) [8]: -0.345
glycan array binding signal (z-score) [9]: -0.275
glycan array binding signal (z-score) [10]: -0.215
glycan array binding signal (z-score) [11]: -0.322
glycan array binding signal (z-score) [12]: -0.439
glycan array binding signal (z-score) [13]: -0.394
glycan array binding signal (z-score) [14]: -0.253
glycan array binding signal (z-score) [15]: -0.378
glycan array binding signal (z-score) [16]: -0.193
glycan array binding signal (z-score) [17]: -0.204
glycan array binding signal (z-score) [18]: -0.399
glycan array binding signal (z-score) [19]: -0.317
glycan array binding signal (z-score) [20]: -0.363
glycan array binding signal (z-score) [21]: -0.345
glycan array binding signal (z-score) [22]: -0.249
glycan array binding signal (z-score) [23]: -0.327
glycan array binding signal (z-score) [24]: -0.267
glycan array binding signal (z-score) [25]: -0.415
glycan array binding signal (z-score) [26]: -0.288
glycan array binding signal (z-score) [27]: -0.081
glycan array binding signal (z-score) [28]: -0.344
glycan array binding signal (z-score) [29]: 0.656
glycan array binding signal (z-score) [30]: -0.303
glycan array binding signal (z-score) [31]: -0.23
glycan array binding signal (z-score) [32]: 0.617
glycan array binding signal (z-score) [33]: -0.281
glycan array binding signal (z-score) [34]: -0.168
glycan array binding signal (z-score) [35]: 0.043
glycan array binding signal (z-score) [36]: 0.356
glycan array binding signal (z-score) [37]: -0.178
glycan array binding signal (z-score) [38]: 0.637
glycan array binding signal (z-score) [39]: -0.208
glycan array binding signal (z-score) (Neu5Ac(a2-6)GalNAc): -0.353
glycan array binding signal (z-score) [40]: -0.32
glycan array binding signal (z-score) [41]: -0.184
